According to the supplement of paper PMC4967469:

Columns and labels:
Assay in all cases: Viability of human cancer cell lines after 72 h of drug (GDSC screen)
[1] = compound: C=C(c1ccc(C(=O)O)cc1)c1cc2c(cc1C)C(C)(C)CCC2(C)C [Bexarotene]; conditions: top dose 8 µM
Protocol: (§1)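 Human cancer cell lines in 384-well plates, medium with 10% serum, drug for 72 h over a 256-fold dose range (nine 2-fold or five 4-fold steps up to the top dose). Adherent lines were fixed and stained with the nucleic acid dye Syto60, suspension lines read with resazurin; signal relative to control wells, capped at 0 and 100%. One two-parameter sigmoid per drug and line, fitted in a mixed model over all curves with the slope shared within a line.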

[2] = compound: COc1cc(C(=O)NC2CCN(C)CC2)ccc1Nc1ncc2c(n1)N(C1CCCC1)C(C)CC(=O)N2C [NPK76-II-72-1]; conditions: top dose 10.24 µM; top dose inferred
Protocol: as §1

[3] = compound: COc1cc([C@@H]2c3cc4c(cc3[C@@H](O[C@@H]3O[C@@H]5CO[C@@H](C)O[C@H]5[C@H](O)[C@H]3O)[C@H]3COC(=O)[C@H]23)OCO4)cc(OC)c1O [Etoposide]; conditions: top dose 16 µM
Protocol: as §1

[4] = compound: COc1ccc(C(=O)CC2(O)C(=O)Nc3c(Cl)ccc(Cl)c32)cc1 [YK 4-279]; conditions: top dose 10 µM
Protocol: as §1

[5] = compound: Cc1ccc2nc(NCCN)c3ncc(C)n3c2c1 [BMS-345541]; conditions: top dose 16 µM
Protocol: as §1

[6] = compound: NC(=O)Nc1cc(-c2cccc(F)c2)sc1C(=O)N[C@H]1CCCNC1 [AZD7762]; conditions: top dose 2 µM
Protocol: as §1

[7] = compound: O=C(O)c1ccc(-c2c[nH]c3ncc(-c4ccccc4)cc23)cc1C1CCCC1 [GSK-650394]; conditions: top dose 16 µM; top dose inferred
Protocol: as §1

[8] = compound: Oc1nc(-c2ccc(C(F)(F)F)cc2)nc2c1CSCC2 [XAV 939]; conditions: top dose 5 µM; top dose inferred
Protocol: as §1

Row | Cell Line | AUC [1] | IC50 [1] | AUC [2] | IC50 [2] | AUC [3] | IC50 [3] | AUC [4] | IC50 [4] | AUC [5] | IC50 [5] | AUC [6] | IC50 [6] | AUC [7] | IC50 [7] | AUC [8] | IC50 [8]
1 | COLO-783 (melanoma, adherent) | 0.991 | > 8 µM | 0.971 | > 10.2 µM | 0.99 | > 16 µM | 0.788 | 4.2 µM | 0.912 | > 16 µM | 0.638 | 0.296 µM | 0.991 | > 16 µM | 0.99 | > 5 µM
2 | COLO-824 (breast, adherent) | 0.978 | > 8 µM | 0.767 | 3.88 µM | 0.919 | > 16 µM | 0.853 | 8.04 µM | 0.909 | > 16 µM | 0.898 | > 2 µM | 0.93 | > 16 µM | 0.978 | > 5 µM
3 | COR-L23 (large cell lung carcinoma, adherent) | 0.922 | > 8 µM | 0.816 | 5.49 µM | 0.782 | 6.48 µM | 0.785 | 4.14 µM | 0.895 | > 16 µM | 0.698 | 0.443 µM | 0.688 | 3.31 µM | 0.946 | > 5 µM
4 | COR-L88 (small cell lung carcinoma, adherent) | 0.968 | > 8 µM | 0.617 | 1.43 µM | 0.877 | > 16 µM | 0.952 | > 10 µM | 0.901 | > 16 µM | 0.825 | 1.52 µM | 0.951 | > 16 µM | 0.976 | > 5 µM
5 | COR-L95 (small cell lung carcinoma, adherent) | 0.978 | > 8 µM | 0.904 | > 10.2 µM | 0.863 | > 16 µM | 0.959 | > 10 µM | 0.861 | > 16 µM | 0.804 | 1.19 µM | 0.981 | > 16 µM | 0.985 | > 5 µM
6 | COR-L279 (small cell lung carcinoma, suspension) | 0.972 | > 8 µM | 0.801 | 4.37 µM | 0.555 | 1.39 µM | 0.865 | 7.26 µM | 0.897 | > 16 µM | 0.914 | > 2 µM | 0.899 | > 16 µM | 0.983 | > 5 µM
7 | CP66-MEL (melanoma, adherent) | 0.897 | > 8 µM | 0.962 | > 10.2 µM | 0.726 | 4.85 µM | 0.736 | 3.29 µM | 0.888 | > 16 µM | 0.809 | 1.23 µM | 0.977 | > 16 µM | 0.981 | > 5 µM
8 | CPC-N (small cell lung carcinoma, suspension) | 0.902 | > 8 µM | 0.869 | > 10.2 µM | 0.865 | > 16 µM | 0.805 | 5.6 µM | 0.911 | > 16 µM | 0.625 | 0.285 µM | 0.825 | 10.8 µM | 0.945 | > 5 µM
9 | CS1 (bone, adherent) | 0.875 | > 8 µM | 0.717 | 2.87 µM | 0.788 | 7.94 µM | 0.753 | 3.7 µM | 0.871 | > 16 µM | 0.548 | 0.172 µM | 0.885 | > 16 µM | 0.904 | > 5 µM
10 | CTB-1 (B-cell lymphoma, suspension) | 0.966 | > 8 µM | 0.668 | 2.24 µM | 0.611 | 2.26 µM | 0.88 | > 10 µM | 0.687 | 4.07 µM | 0.495 | 0.12 µM | 0.857 | > 16 µM | 0.906 | > 5 µM
11 | CTV-1 (acute myeloid leukaemia, suspension) | 0.975 | > 8 µM | 0.569 | 0.949 µM | 0.347 | 0.414 µM | 0.594 | 1.07 µM | 0.552 | 1.34 µM | 0.382 | 0.0633 µM | 0.867 | 9.9 µM | 0.98 | > 5 µM
12 | Ca9-22 (head and neck, adherent) | 0.949 | > 8 µM | 0.829 | 5.76 µM | 0.621 | 2.1 µM | 0.664 | 1.71 µM | 0.933 | > 16 µM | 0.759 | 0.653 µM | 0.872 | 13.4 µM | 0.987 | > 5 µM
13 | Ca-Ski (cervix, adherent) | 0.934 | > 8 µM | 0.76 | 4.01 µM | 0.62 | 2.23 µM | 0.582 | 1.07 µM | 0.714 | 4.39 µM | 0.485 | 0.113 µM | 0.864 | > 16 µM | 0.948 | > 5 µM
14 | Caov-4 (ovary, adherent) | 0.979 | > 8 µM | 0.921 | > 10.2 µM | 0.93 | > 16 µM | 0.828 | > 10 µM | 0.809 | 13.6 µM | 0.69 | 0.551 µM | 0.959 | > 16 µM | 0.883 | > 5 µM
15 | D-263MG (glioma, adherent) | 0.938 | > 8 µM | 0.975 | > 10.2 µM | 0.977 | > 16 µM | 0.679 | 2.21 µM | 0.887 | > 16 µM | 0.793 | 1.14 µM | 0.79 | 8.86 µM | 0.945 | > 5 µM
16 | D-283MED (medulloblastoma, adherent) | 0.966 | > 8 µM | 0.991 | > 10.2 µM | 0.625 | 2.14 µM | 0.958 | > 10 µM | 0.99 | > 16 µM | 0.529 | 0.149 µM | 0.988 | > 16 µM | 0.985 | > 5 µM

A lower IC50 marks a more sensitive line; a fit beyond the top or the lowest dose is shown as a bound at that dose. AUC sums up the same curve from the lowest dose to the 256-fold higher top dose; it is 1 without any effect and falls as sensitivity rises. For some of these results: An inferred top dose was calculated from the reported fits.
